Data from PubChem BioAssay AID759 (NMMLSC, 2007).
The whole screen tested about 190,000 compounds, of which about 270 (0.14%) were called active. Inconclusive results, whose numbers are uncertain, are shown with a selection of clear calls.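 Rule for the calls: active = GTP binding activity at least 20% away from the 100% baseline, either lowered as inhibitor or raised as activator; inconclusive = flagged as likely green fluorescent, judged across all proteins in the well; inactive = the rest.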

Molecular target: GTPase HRas (Homo sapiens) (UniProt P01112)
Chain of UniProt P01112 (P01112 whole entry, looked up): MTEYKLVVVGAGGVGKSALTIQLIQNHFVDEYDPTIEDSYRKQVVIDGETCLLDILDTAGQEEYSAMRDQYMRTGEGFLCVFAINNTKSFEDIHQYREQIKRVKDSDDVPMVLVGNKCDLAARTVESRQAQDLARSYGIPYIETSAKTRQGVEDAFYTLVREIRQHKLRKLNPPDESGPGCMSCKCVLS
Experiment: HRas wt fluorescent GTP binding changes, either direction – biochemical, wildtype, bead-based flow cytometry, multiplex, primary screen (AID 759);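 note: 0% = unlabeled GTP competition control and 100% = no-compound control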
Settings: GST-Ras wt beads, Bodipy-FL-GTP binding, at 10 µM, actives lie on both sides

Row | Structure (SMILES) | GTP binding activity
1 | Cc1c(C(=O)Nc2nc3ccccc3[nH]2)oc2c(Cl)cccc12 | inconclusive: 81%
2 | Cc1ccc(NC(=O)Cn2nc(C)cc2C)cc1 | inconclusive: 105%
3 | CC1CCOC2(O1)C(=O)N(CN1CCN(c3ccccc3F)CC1)c1ccccc12 (stereo not given) | inconclusive: 105%
4 | CCOC(=O)C(C(=O)OCC)c1cc(Br)c2noc3c2c1C(=O)c1ccccc1-3 | inactive: 96%
5 | CNC(=O)c1ccc(Nc2nnc(-c3ccc(C)c(S(=O)(=O)NCC4CCCO4)c3)c3ccccc23)cc1 (stereo not given) | inconclusive: 94%
6 | c1cnc(N2CCN(Cc3ccc4c(c3)OCO4)CC2)nc1 | inconclusive: 105%
7 | CCOc1cccc(NC(=O)c2cccc(F)c2)c1 | inactive: 95%
8 | O=C(/C=C/c1cn(-c2ccccc2)nc1-c1ccccc1)Nc1ccc(C(=O)O)cc1 | inconclusive: 82%
9 | COc1ccc(-c2ccc(SCC(=O)Nc3nnc(C)s3)nn2)cc1 | inconclusive: 97%
10 | COc1cccc(C2=NN(C(=O)c3ccccc3)C(O)(C(F)(F)F)C2)c1 (stereo not given) | inconclusive: 104%
11 | COc1ccc(Cc2nnc(NC(=O)c3cc(OC)c(OC)c(OC)c3)s2)cc1OC | inactive: 94%
12 | CCOC(=O)c1cc[nH]c1C | inactive: 93%
13 | COc1ccc(OC)c(CC(NC(C)=O)C(=O)NC2CCN(c3cc(C)nc4ncnn34)CC2)c1 (stereo not given) | inactive: 99%
14 | CCc1ccccc1NC(=O)CSc1nc2n[nH]c(C)c2c(=N)n1-c1cccc(OC)c1 | inconclusive: 90%
15 | CCCCN(C)CCNC(=O)CCNC(=O)Cn1ccc2ccccc2c1=O | inactive: 98%
16 | COC(=O)c1cc2c(C)cc3ccc(C)cn3c-2c1C(=O)OC | inconclusive: 91%
17 | O=C(NC(Cc1c[nH]c2ccccc12)C(=O)O)c1ccc(Br)cc1 (stereo not given) | inactive: 92%
18 | Nc1ccc(C2CCCc3nonc32)c2nonc12 (stereo not given) | inconclusive: 94%
19 | Cn1nc([N+](=O)[O-])c(C(C#N)c2ccccn2)c(Cl)c1=O (stereo not given) | inactive: 82%
20 | Cc1ccc[n+](CC(=O)Nc2cc(C(F)(F)F)ccc2N2CCOCC2)c1 | inconclusive: 91%
21 | CC1CCCN(c2ccc3nc4ccccc4c(=O)n3n2)C1 (stereo not given) | inactive: 80%
22 | O=C(O)CC(NC(=O)C1CCCCC1)c1ccc(OC2CCCC2)cc1 (stereo not given) | inconclusive: 93%
23 | CCn1c(=O)c(C(=O)Nn2c(C)nc3ccccc3c2=O)c(O)c2ccccc21 | inconclusive: 90%
24 | O=C(CCc1ccccn1)N1CCCC(CNS(=O)(=O)c2cccs2)C1 (stereo not given) | active: 60%
25 | COc1ccc(N2CCN(C(=O)Cn3cnc4c(cnn4-c4ccc(C)cc4)c3=O)CC2)cc1 | inactive: 97%
